Drawing on PubChem BioAssay AID1346428 (National Center for Advancing Translational Sciences (NCATS), 2018), this text covers activation for 83 compounds.

Several values for one entry are separate records, joined by “and”; a condition that tells them apart may be missing. Equal values may be shown once. Screen size: about 48,000 compounds; about 1,200 (2.5%) were called active. Not shown: some 2% with an inconclusive outcome.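 The calls were made as follows: active = activation of at least 60% and not above a set upper limit (about 1 call in 100 departs from these limits); inconclusive = activation of 40% to 60%, or above that upper limit; inactive = activation under 40%.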 The list shows a part of the results.

UniProt O75388, sequence (O75388 whole entry, looked up): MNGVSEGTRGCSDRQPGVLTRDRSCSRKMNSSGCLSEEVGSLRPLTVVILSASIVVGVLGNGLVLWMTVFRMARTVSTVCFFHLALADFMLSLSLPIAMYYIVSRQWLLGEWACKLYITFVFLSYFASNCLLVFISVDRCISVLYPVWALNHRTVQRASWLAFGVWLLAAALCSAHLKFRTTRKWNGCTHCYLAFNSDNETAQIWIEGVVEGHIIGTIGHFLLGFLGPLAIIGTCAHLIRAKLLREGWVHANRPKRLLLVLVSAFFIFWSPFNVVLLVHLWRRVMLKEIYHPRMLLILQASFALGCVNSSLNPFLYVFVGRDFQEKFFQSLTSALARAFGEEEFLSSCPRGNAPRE

In the assay the target is Probable G-protein coupled receptor 32 (Homo sapiens) (UniProt O75388). The assay is described as follows: qHTS for Agonists of Human Resolvin D1 Receptor DRV1. Also: 0% is about no effect. The following applies: CHO-K1 GPR32 beta-arrestin PathHunter luminescence, 90 min; at 76.9 µM; stronger effect = higher value; zero percent set by DMSO-only wells. The essentials:
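PathHunter beta-arrestin recruitment in CHO-K1 cells stably expressing ProLink-tagged GPR32. Cells were exposed to compound for 90 min at 37 C, then chemiluminescence was read after 1 h detection at ambient temperature; DMSO served as basal control.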
Background: Quantitative high-throughput screening tests each substance at several concentrations.
In the case of `Cc1ccc2c(c1)cc1c(=O)n(CC(=O)NCc3ccco3)nc(C)n12`, the activation was inactive: -2.01%.
For `COc1ccc(CCNC(=O)CCn2c(=O)c3ccccc3n(CC(=O)Nc3cccc(C)c3)c2=O)cc1OC` the value was inactive: 9.55%; for `CC(=O)c1ccc(NC(=O)Cn2c(-n3nc(C)cc3C)nc(C)cc2=O)cc1`, inactive: -7.1%.
The same measure for `COc1cc(OC)cc(-c2nnc(SCC(=O)N3CCC(C)CC3)o2)c1`: inactive: 3.58%; for `COc1ccc2cc(-c3cn4c(n3)sc3cc(F)ccc34)c(=O)oc2c1`: inactive: -6.23%.
As for `Cc1cccc(OCC(=O)N(Cc2cccc(Cl)c2)Cc2ccco2)c1C`, the activation is inactive: -2.88%.
As for `CC(C)S(=O)(=O)c1oc(-c2ccc(F)cc2)nc1S(=O)(=O)c1ccc(F)cc1`, the activation was inactive: -0.656%.
For `Cc1ccc(S(=O)(=O)c2nc(-c3ccccc3)oc2N2CCCCCC2)cc1` the value was inactive: -20.9%.
For `COc1ccc(/C=C/c2onc(C)c2S(=O)(=O)N2CCC(C(=O)N3CCC(C)CC3)CC2)cc1` the value was inactive: -18.8%; for `COc1cccc(C(=O)NCC(c2ccc(N(C)C)cc2)N2CCOCC2)c1OC` (stereo not drawn), inactive: -3.85%; for `Cc1ccccc1CSc1nc(-c2ccccc2)nc2c1Cc1c(CO)cnc(C)c1O2`, inactive: 8.96%.
As for `CCOC(=O)c1c(S(=O)(=O)N2CCCC(C(=O)Nc3cc(C)ccc3OC)C2)c(C)n(C)c1C` (stereo not drawn), the activation was inactive: 34.2%.
For `CC(C)CCNC(=O)N1CCN(S(=O)(=O)c2ccc3c(ccn3C)c2)CC1` the value was inactive: -7.58%; for `CC1CCN(S(=O)(=O)c2ccc3c(c2)N(CC(=O)N2CCN(c4ccc(Cl)cc4)CC2)C(=O)CO3)CC1`, inactive: 18.3%; for `CCCCNC(=O)CCn1c(=O)c2ccccc2n(Cc2cc(C)ccc2C)c1=O`, inactive: -4.28%.
In the case of `COc1cccc(C2=NN(C(C)=O)C(c3cn(-c4ccccc4)nc3-c3cccs3)C2)c1` (stereo not drawn), the activation was inactive: 7.31%.
`CCOc1ccc(CCNC(=O)CCc2cn(Cc3ccc(C)cc3)c3ccccc23)cc1`: the activation was inactive: -33%.
For the compound `CC(C[N+](C)(C)C)OC(N)=O` (stereo not drawn), the activation was inactive: -1.06% and inactive: 4.27%.
The same measure for `O=C(c1ccc(CSc2nc3ccncc3n2Cc2ccccc2F)cc1)N1CCCCCC1`: inactive: -2.7%.
For the compound `CCCC(=O)Nc1nnc(SCc2cc(=O)c3cc(C)ccc3[nH]2)s1`, the activation is inactive: 44.9%.
The same measure for `Cc1ccc(C)c(N2CCN(C(=O)c3cc(S(=O)(=O)N4CCCCC4)cn3C)CC2)c1`: inactive: -3.46%; for `COc1ccc2[nH]cc(CCNC(=O)Nc3ccc(F)cc3)c2c1`: inactive: 41.9%.
For the compound `CC(C)NS(=O)(=O)c1ccc(OCC(=O)N2CCN(c3ccccc3F)CC2)cc1`, the activation is inactive: 11.3%.
As for `Cc1cc(C)c2c(CC(=O)Nc3nnc(CC(C)C)s3)coc2c1`, the activation is inactive: 10.4%.
For `COc1ccc(CCCc2nnc(SCC(=O)Nc3ccc(C)c(C)c3)o2)cc1` the value was inactive: 37.7%.
The same measure for `CCc1ccc(S(=O)(=O)c2cn(C)c3cc(N4CCN(CC)CC4)c(F)cc3c2=O)cc1`: inactive: 4.97%.
The same measure for `CSc1cccc(NC(=O)c2ccc3c(c2)c(C)c(C)n3Cc2ccc(F)cc2)c1`: inactive: -16.9%; for `COc1ccccc1-c1c(C)nn2c(C(F)(F)F)cc(-c3ccccc3)nc12`: inactive: -28.6%.
Turning to `Cc1ccc(CN2CCC(CNC(=O)Nc3c(C)cccc3C)C2)cc1` (stereo not drawn), the activation was inactive: 6.23%.
The same measure for `O=C(c1ccc(CS(=O)c2ccccc2Cl)o1)N1CCN(c2ccccc2F)CC1` (stereo not drawn): inactive: -0.928%; for `CN(C)CCN(Cc1ccc(Cl)cc1)c1ccccn1`: inactive: 36.3%.
For `COc1cccc(C(=O)N(Cc2cccc(Cl)c2)Cc2ccco2)c1` the value was inactive: -3.01%.
For `O=C(CCC1N=C2c3ccccc3N=C(SCc3cccc(Cl)c3)N2C1=O)NCc1cccs1` (stereo not drawn), the activation is inactive: -5.43%.
On to `CCC(=O)Nc1cccc(-c2cn3c(C)csc3n2)c1`, for which the activation is inactive: 17.1%.
For `COc1cc(C(=O)NCCSc2c(-c3ccccc3)[nH]c3ccccc23)cc(OC)c1OC` the value was inactive: -16.6%.
For `CC(C)(C)c1ccc(OCC(=O)Nc2c(C(=O)c3ccc(F)cc3)oc3ccccc23)cc1` the value was inactive: -6.67%; for `NS(=O)(=O)Cc1noc2ccccc12`, inactive: 5.4%; for `CCOC(=O)c1ccccc1NC(=O)CSc1ncc2c(n1)-c1ccccc1N(CC)S2(=O)=O`, inactive: -1.15%.
For `CCC(C)n1c(=N)c(S(=O)(=O)c2ccccc2)cc2c(=O)n3ccccc3nc21` (stereo not drawn) the value was inactive: -7.23%; for `Cc1nn(C)c2c1c(-c1ccccc1)cc(=O)n2CC(=O)NC(C)(C)C`, active: 91.5%.
For the compound `COc1cc2nc(SCc3ccc(F)cc3)n3nc(CCn4c(C)nc5ccccc54)nc3c2cc1OC`, the activation is inactive: 11.2%.
For `CCOc1ccccc1NC(=O)N1CCN(Cc2cc(=O)n3nc(-c4ccc(C)cc4)sc3n2)CC1` the value was inactive: 17.6%; for `CCOc1ccc(S(=O)(=O)N(CC(=O)NCCSCc2ccccc2)c2ccccc2)cc1`, inactive: -1.95%; for `O=C(c1ccc(CSc2nc3ccncc3n2Cc2ccccc2F)cc1)N1CCCCC1`, inactive: -5.74%.
For `CCOc1ccc(NC(=O)NCCCN2CCN(c3ccc(OC)cc3)CC2)cc1`, the activation is inactive: -2.65%.
The same measure for `Cc1c(CCC(=O)NCCc2ccccc2F)c(=O)oc2cc(O)ccc12`: inactive: 49.3%.
For the compound `COc1ccc2c(c1)C(=O)N(CCc1ccc(S(=O)(=O)NC(=O)NC3CCCCC3)cc1)C(=O)C2(C)C`, the activation is inactive: 2.59%.
As to `CN(C)c1ccc(/C=C(\C#N)c2nc3ccccc3c(=O)[nH]2)cc1`, the activation was inactive: -4.45%.
With `Cc1ccccc1NC(=O)Cn1c(=O)n(Cc2ccco2)c(=O)c2cccnc21`, the activation is inactive: -21.9%.
For `Cc1ccc(-c2cc(C(=O)NCCc3ccccc3)c3ccccc3n2)cc1C`, the activation is inactive: -19.8%.
The same measure for `O=C(NCc1ccc(F)cc1)c1cccc(N2CCCS2(=O)=O)c1`: inactive: 12.6%.
Take `O=C(NCCc1ccccc1)c1cc(-c2ccccc2)nc2n[nH]c(-c3ccccc3)c12`: the activation was inactive: -14.7%.
As to `CCc1ccc2c(c1)c(=O)c(C(=O)c1ccc(C)cc1)cn2CC(=O)Nc1ccc2c(c1)OCCO2`, the activation is inactive: -0.254%.
The same measure for `CC(C)c1ccc(NC(=O)CNC(=O)Cn2ccc3ccccc3c2=O)cc1`: inactive: 7.17%; for `Cc1ccc(Cl)cc1NC(=O)C1CCCN(S(=O)(=O)c2c(C)noc2/C=C/N(C)C)C1` (stereo not drawn): inactive: -23.8%; for `COC(=O)c1c(NC(=O)CCCOc2ccccc2)sc2c1CCC(C)C2` (stereo not drawn): inactive: 7.01%.
For `CCC(=O)N1CCc2cc(S(=O)(=O)CCC(=O)N(C)c3ccc(OC)cc3)ccc21` the value was inactive: 13.6%; for `Fc1ccc(C2=NC(c3cccc(C(F)(F)F)c3)=Nc3ccccc3N2)cc1`, inactive: 15.8%; for `Cc1cc(Nc2cccc(Cl)c2)nc2ccc(NC(=O)c3ccc(F)cc3Cl)cc12`, inactive: 11.8%.
Consider `O=C(Nc1ccccc1C(=O)OCc1cc(=O)n2ccsc2n1)c1cccc(F)c1`, for which the activation was inactive: -2.13%.
As for `Cc1ccc(S(=O)(=O)N2CCCc3cc(NC(=O)c4ccc(C(C)(C)C)cc4)ccc32)cc1`, the activation was inactive: -7.79%.
The same measure for `COc1cccc(-c2nc(CS(=O)(=O)CC(=O)NCCCc3ccccc3)c(C)o2)c1`: inactive: -8.99%; for `Cc1ccc(CSc2ncccc2C(=O)O)cc1`: inactive: 1.66%.
The same measure for `Cc1nc(-c2ccc(F)cc2)sc1CCNC(=O)C(=O)Nc1ccc2c(c1)OCO2`: inactive: 9.9%.
The same measure for `CCOC(=O)c1cccc(NC(=O)NCc2ccc3c(c2)CCN3C(=O)CC)c1`: inactive: -5.04%; for `CCN(CC)c1ccc(NC(=O)c2sc3nc(-c4ccccc4)cn3c2C)cc1`: inactive: 1.99%; for `COc1ccc(N2CCN(C(=O)c3nn(C)c4c3CSc3ccccc3-4)CC2)cc1`: inactive: -26.3%.
On to `Cc1ccc(Cl)cc1NC(=O)Cn1cc(S(=O)(=O)Cc2ccccc2Cl)c2ccccc21`, for which the activation was inactive: -5.26%.
Regarding `CCC(=O)Nc1ccccc1-c1nc2ccccc2n(CC(=O)c2ccc(Br)cc2)c1=O`, the activation was inactive: -3.06%.
The same measure for `CC1=C(C(=O)Nc2cccc(C(F)(F)F)c2)C(c2ccccn2)n2ncnc2N1` (stereo not drawn): inactive: -8.5%; for `CCCN(C(=O)NCc1noc2ccc(C)cc12)c1ccc(Cl)c(Cl)c1`: inactive: -16.9%; for `CCc1ccc(C(=O)c2cn(CC(=O)Nc3ccc(OC)c(Cl)c3)c3nc(C)ccc3c2=O)cc1`: inactive: 35%.
Take `O=C(Cn1c(SCCOc2ccccc2Cl)nc2ccccc21)N1CCCCC1`: the activation was inactive: -17.7%.
In the case of `COc1ccc([C@@H]2Sc3ccccc3N(CCN(C)C)C(=O)[C@@H]2OC(C)=O)cc1`, the activation is inactive: 9.05% and inactive: -5.05%.
The same measure for `Cc1cc(C)cc(OCC(=O)NCC2(N3CCOCC3)CCCCC2)c1`: inactive: -26.4%; for `Cc1cn([C@H]2C[C@H](N=[N+]=[N-])[C@@H](CO)O2)c(=O)[nH]c1=O`: inactive: 0.553% and inactive: -2.74%; for `CCCc1cc(=O)[nH]c(SCc2nc(-c3ccc(OC)cc3)no2)n1`: inactive: -7.74%.
The same measure for `Cc1ccc(C)c(NC(=O)Cn2c(=O)n(Cc3ccco3)c(=O)c3ccc(C(=O)NC4CCCC4)cc32)c1`: inactive: -25.5%; for `COc1ccc(CC(=O)NCCc2csc(-c3cccc(F)c3)n2)cc1OC`: inactive: 27.7%; for `N#Cc1ccccc1Cn1c(=O)n(-c2ccc(F)c(Cl)c2)c(=O)c2sccc21`: inactive: -5.66%.
The same measure for `CCOC(=O)c1ccccc1NC(=O)c1sc2ncn(CC)c(=O)c2c1C`: inactive: -0.697%.
Consider `Cc1ccc(S(=O)(=O)Nc2cc3c(C(=O)OCc4ccccc4)c(C)oc3c3ccccc23)cc1`, for which the activation was inactive: 3.89%.
For `O=C(C1CCN(c2ncnc3c2nc2n3CCCCC2)CC1)N1CCN(c2ccccc2)CC1` the value was inactive: 3.8%.
